The other results are listed elsewhere or left out. The energies were worked out here from pooled read counts, against the library average; single values are noisy.
biological target: T1, Pho4 (S. cerevisiae) (UniProt P07270); assay: relative binding free energy (BET-seq); higher = weaker binding; conditions: reference: library average
T1 sequence: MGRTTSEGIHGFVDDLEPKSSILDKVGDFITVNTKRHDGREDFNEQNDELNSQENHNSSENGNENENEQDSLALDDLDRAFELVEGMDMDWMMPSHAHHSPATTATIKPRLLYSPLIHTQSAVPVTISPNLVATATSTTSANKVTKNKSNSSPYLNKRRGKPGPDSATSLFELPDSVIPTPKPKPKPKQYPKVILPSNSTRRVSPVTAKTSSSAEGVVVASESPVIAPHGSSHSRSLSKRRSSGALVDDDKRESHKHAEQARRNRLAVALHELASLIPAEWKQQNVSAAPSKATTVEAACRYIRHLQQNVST

Row | Sequence | relative binding free energy [kcal/mol]
1 | GTGGGCACGTGTAGGC | -0.03
2 | TTAGTCACGTGGAGAG | 0.03
3 | GGGGTCACGTGGGATC | 0.15
4 | GATGGCACGTGTCTGT | -0.13
5 | TTGGGCACGTGACGGA | 0.04
6 | CGTTACACGTGATGTG | 0.06
7 | GATATCACGTGTGATG | 0.36
8 | GGGTGCACGTGAAATA | 0.13
9 | AGAGGCACGTGTTGCT | -0.07
10 | ATTTCCACGTGGGTTT | -0.04
11 | TTGGGCACGTGATTAC | 0.07
12 | GTCTCCACGTGTGTTG | 0.14
13 | GTAGACACGTGGGGAA | 0.03
14 | TGTTCCACGTGTGCGT | -0.06
15 | AGTTTCACGTGAGTTT | 0.44
16 | TGGGCCACGTGGAGTC | 0.01
17 | TATACCACGTGTTGGG | -0.13
18 | TAGGGCACGTGTTGGC | 0.08
19 | TATTGCACGTGAAATA | 0.11
20 | GGTAGCACGTGGTTAG | -0.13
21 | GATGTCACGTGTTATA | 0.11
22 | GTTCGCACGTGGTTCT | 0.03
23 | AATGTCACGTGGAGGA | 0.04
24 | AGTGTCACGTGTGAGC | 0.09
25 | GAGGTCACGTGTAGGT | 0.15

Row | Sequence | relative binding free energy [kcal/mol]
26 | TGTAGCACGTGTTCTA | -0.06
27 | TACGTCACGTGGGTAA | 0.02
28 | AGTTACACGTGGGGAA | 0
29 | AAGAGCACGTGATTGG | 0.15
30 | AATTTCACGTGGTTCG | 0.3
31 | TTTTGCACGTGCTATA | -0.13
32 | GGGTACACGTGTGCTT | 0.26
33 | CTGTACACGTGTTGGT | 0.11
34 | ATTGGCACGTGTAACG | -0.08
35 | GTAGTCACGTGCTGGA | 0.1
36 | AGTAACACGTGACGGT | 0.12
37 | GTGCCCACGTGGGGAT | -0.12
38 | TTTGCCACGTGTGCGT | -0.18
39 | AAGTACACGTGGTAAG | 0.01
40 | AGATTCACGTGAGGTG | 0.36
41 | TTTGGCACGTGCGAGT | -0.07
42 | GTGGGCACGTGTATTA | 0.01
43 | TAAGGCACGTGAAAGG | 0.16
44 | GTGTCCACGTGTGGTG | 0.07
45 | ATCGCCACGTGTTGGG | -0.06
46 | GGTCACACGTGATGGA | 0.25
47 | ATGCACACGTGTCGGT | 0.13
48 | AGATACACGTGTTGTG | 0.07
49 | GGTTGCACGTGGTCAT | -0.02
50 | TGAGGCACGTGGGTTA | -0.14

Row | Sequence | relative binding free energy [kcal/mol]
51 | CACGGCACGTGGGGTT | -0.26
52 | AGAGCCACGTGATTGG | 0.14
53 | GGGTTCACGTGTTGTC | 0.26
54 | TGTGGCACGTGCTTGG | -0.21
55 | GTTGTCACGTGTAGTT | 0.13
56 | CAAGTCACGTGGTTTA | 0.09
57 | ACAGTCACGTGTTTTA | 0.1
58 | CTTGTCACGTGAGTCT | 0.31
59 | ATTTACACGTGGTAAG | 0.1
60 | GTTCTCACGTGTTGTC | 0.2
61 | GGCTTCACGTGTGGGC | 0.34
62 | GGGGGCACGTGGGTAG | -0.15
63 | CAGGTCACGTGGTGGC | 0.16
64 | GTGCACACGTGTAAGG | 0.17
65 | AGGACCACGTGGAGGT | -0.04
66 | GGTAACACGTGAGTGA | -0.01
67 | AGTGACACGTGGATTT | 0.05
68 | TGGGGCACGTGGAATG | 0.03
69 | GTTGTCACGTGGTCAA | 0.02
70 | AAATGCACGTGCGGTT | -0.13
71 | TGAAGCACGTGTTGGG | 0.01
72 | GGTGACACGTGTGTTG | 0.02
73 | GTCCGCACGTGTTTGG | 0.03
74 | AAGGGCACGTGGGAAA | -0.06
75 | AATTTCACGTGTTATA | 0.19

Row | Sequence | relative binding free energy [kcal/mol]
76 | TAGGGCACGTGCTGAG | -0.05
77 | AGATACACGTGCTGTG | -0.01
78 | AGAAGCACGTGTTGTC | 0.09
79 | GTGGGCACGTGGTGAA | -0.04
80 | AGTGTCACGTGTGGAA | 0.1
81 | AACATCACGTGAGGTG | 0.36
82 | GTATGCACGTGTGCTG | 0.04
83 | ACAGGCACGTGATGTG | -0.06
84 | TTGTTCACGTGTGTTC | 0.22
85 | AAAGTCACGTGTTCGT | 0.01
86 | CGGGGCACGTGAGTGG | 0.03
87 | CGTGGCACGTGCATGG | -0.16
88 | GCAGGCACGTGTCGTG | 0.04
89 | GGAGGCACGTGTATCG | -0.05
90 | AGGAGCACGTGATGTG | 0.07
91 | TTAGCCACGTGTTGTG | -0.09
92 | AGTGTCACGTGACTAG | 0.24
93 | TGTAACACGTGAGTAT | 0.29
94 | TGGGTCACGTGGTTAA | 0.1
95 | TGATACACGTGTATTG | -0.04
96 | GGGAACACGTGAAGGT | 0.46
97 | TGTTACACGTGTAAAA | 0.24
98 | GACAGCACGTGGGTGG | -0.19
99 | GGGAGCACGTGCGTGG | -0.07
100 | ACAGGCACGTGGGAGG | -0.21

Row | Sequence | relative binding free energy [kcal/mol]
101 | AGAGTCACGTGTAAAG | 0.27
102 | TAATGCACGTGGGGGT | -0.19
103 | ACAGTCACGTGGGGCG | -0.13
104 | TGGCGCACGTGAGTAG | 0
105 | TCGAACACGTGGGTTG | -0.15
106 | ATTGACACGTGGTAGA | 0.04
107 | GAGGACACGTGTTTTA | 0.2
108 | ATTTTCACGTGTTCCG | 0.31
109 | AGTTTCACGTGTCAGT | 0.28
110 | GTGTTCACGTGTGAGA | 0.38
111 | ATAAGCACGTGGCTGT | -0.14
112 | CTATGCACGTGTTAGG | 0.01
113 | AGGGTCACGTGGGTCT | 0.07
114 | GTTGTCACGTGATTTA | 0.35
115 | AAAAGCACGTGTTAGG | -0.01
116 | ATATGCACGTGTGTGA | -0.06
117 | AGTAACACGTGATTTT | 0.11
118 | TGAGGCACGTGACGAG | -0.1
119 | TGTAGCACGTGCTGGC | -0.23
120 | ATGGGCACGTGACTAG | -0.08
121 | GGTTCCACGTGTAATG | 0.21
122 | GTATTCACGTGGGCGC | 0.27
123 | GGCGGCACGTGGCAAG | -0.14
124 | ATGTTCACGTGTGGGT | 0.23
125 | ACGGACACGTGTTTGT | 0

Row | Sequence | relative binding free energy [kcal/mol]
126 | AGCAGCACGTGTGAGT | 0.07
127 | GATTACACGTGGAGTG | 0.1
128 | CGGTTCACGTGAAGTA | 0.37
129 | TTTCGCACGTGTTGTG | -0.06
130 | GTATACACGTGGTATT | 0.04
131 | ATTTCCACGTGGAGGG | 0
132 | AGTGACACGTGAGCTT | 0.19
133 | GGTACCACGTGGTTGA | -0.15
134 | AGTCTCACGTGTGCGT | 0.1
135 | GTTTGCACGTGGCACT | 0.14
136 | TATGACACGTGGAGGG | -0.01
137 | GTGAGCACGTGGTGGT | -0.08
138 | CTTGGCACGTGATGAG | 0.02
139 | GGAGGCACGTGTCGGC | -0.13
140 | TTTATCACGTGGGTAT | 0.05
141 | GTTGTCACGTGATATA | 0.19
142 | TATTACACGTGGAGTT | 0.11
143 | TGTAGCACGTGATTAT | 0.09
144 | TAAATCACGTGGGGTA | -0.05
145 | TTTTTCACGTGGCAGA | 0.26
146 | TGCGACACGTGTGGGG | 0.15
